The values below come from the antibiotic and cytotoxicity screens of Wong et al. (2023).

The other results are listed elsewhere or left out.

In experiment [1] the test system is HSkMC (human skeletal muscle cells). Description: cytotoxicity call (relative viability < 0.9). Conditions: 10 µM.
Experiment [2] relates to HepG2. Description: cytotoxicity call (relative viability < 0.9). Conditions: 10 µM.
The test system of experiment [3] is S. aureus RN4220. As to the kind of experiment: growth inhibition call (relative growth <= 0.2). The following applies: 50 µM.

For `CC(C)(N)c1ccccc1Br`, the cytotoxicity call in experiment [1] and in experiment [2] was “inactive” throughout. In addition, in experiment [3], the growth inhibition call is “inactive”.

As for `COc1ccc(S(=O)(=O)N(C)C[C@H]2Oc3ccc(N(C)C)cc3CC(=O)N([C@@H](C)CO)C[C@@H]2C)cc1`, the cytotoxicity call in experiment [1] and in experiment [2] was “inactive” in each case. In addition, the growth inhibition call in experiment [3] is “inactive”.

On to `C[C@H]1CN([C@@H](C)CO)C(=O)Cc2cc(NC(=O)Cc3cn(C)c4ccccc34)ccc2O[C@@H]1CN(C)C(=O)Nc1ccc(C(F)(F)F)cc1`, for which the cytotoxicity call in experiment [1] and in experiment [2] was “inactive” throughout. In addition, the growth inhibition call in experiment [3] was “inactive”.

For `Cc1noc(C)c1NC(=O)N[C@H]1CC[C@@H](CC(=O)NCCCN(C)C)O[C@H]1CO`, the cytotoxicity call in experiment [1] and in experiment [2] was “inactive” throughout. In addition, the growth inhibition call in experiment [3] was “inactive”.

On to `C[C@@H]1CN([C@H](C)CO)C(=O)c2cc(NC(=O)Nc3cccc4ccccc34)ccc2O[C@@H]1CN(C)CC1CCCCC1`, for which, in experiment [1], the cytotoxicity call is “inactive”. Also, the cytotoxicity call in experiment [2] is “active”. Moreover, the growth inhibition call in experiment [3] is “inactive”.

`COc1ccc(NC(=O)N(C)C[C@@H]2Oc3c(NC(=O)c4ccc(-c5nccs5)cc4)cccc3C(=O)N([C@@H](C)CO)C[C@@H]2C)cc1`: the cytotoxicity call in experiment [1] and in experiment [2] was “inactive” throughout. Moreover, the growth inhibition call in experiment [3] is “inactive”.

As to `COc1ccc(-c2nc(-c3ccc(C)cc3C)cs2)cc1`, the cytotoxicity call in experiment [1] and in experiment [2] was “inactive” throughout. For the same compound, the growth inhibition call in experiment [3] was “inactive”.

In the case of `CC(C)NC(=O)N(C)C[C@H]1Oc2ccc(NS(=O)(=O)c3cn(C)cn3)cc2CC(=O)N([C@@H](C)CO)C[C@@H]1C`, the cytotoxicity call in experiment [1] and in experiment [2] was “inactive” throughout. In experiment [3], the growth inhibition call is “inactive”.

`C[C@H]1CN([C@@H](C)CO)C(=O)c2cccc(NS(=O)(=O)c3ccccc3)c2O[C@H]1CN(C)S(=O)(=O)c1ccc(F)cc1`: the cytotoxicity call in experiment [1] and in experiment [2] was “inactive” in each case. Further, the growth inhibition call in experiment [3] is “inactive”.

Take `COc1ccc(S(=O)(=O)N2C[C@H](O)COC[C@@H]3O[C@@H](CC(=O)NCCCN4CCOCC4)CC[C@H]32)cc1`: the cytotoxicity call in experiment [1] and in experiment [2] was “inactive” each time. Further, in experiment [3], the growth inhibition call is “inactive”.

`O=C(C[C@@H]1CC[C@@H]2[C@H](COC[C@@H](O)CN2C(=O)c2ccccc2)O1)N1CCOCC1`: the cytotoxicity call in experiment [1] and in experiment [2] was “inactive” each time. Also, the growth inhibition call in experiment [3] was “inactive”.

`COc1ccc(CN(C)C[C@H]2OCCCC[C@H](C)Oc3ccc(NS(=O)(=O)c4ccc(Cl)cc4)cc3C(=O)N([C@@H](C)CO)C[C@@H]2C)cc1`: the cytotoxicity call in experiment [1] and in experiment [2] was “inactive” throughout. The growth inhibition call in experiment [3] was “inactive”.

As for `COc1ccc2c3c([nH]c2c1)[C@H](CO)N(CC1CCCCC1)C[C@]13CCN(CC1)C(=O)Nc1cccc(c1)F`, the cytotoxicity call in experiment [1] and in experiment [2] was “inactive” each time. Moreover, the growth inhibition call in experiment [3] was “inactive”.

Take `[N-]=[N+]=Nc1ccccc1[C@H]1OC(c2ccc(OCCCO)cc2)=N[C@@]1(Cc1ccccc1)C(=O)NC[C@@H](O)CO`: the cytotoxicity call in experiment [1] and in experiment [2] was “inactive” throughout. For the same compound, the growth inhibition call in experiment [3] is “inactive”.

Consider `O=C(NCCN1CCCC1)[C@H]1[C@H](CO)[C@H]2Cn3c(cccc3=O)[C@H]2N1C(=O)c1ccccc1`, for which the cytotoxicity call in experiment [1] and in experiment [2] was “inactive” each time. Besides, the growth inhibition call in experiment [3] was “inactive”.

Regarding `Cc1noc(C)c1NC(=O)N(C)C[C@H]1Oc2c(NS(=O)(=O)c3c(C)noc3C)cccc2C(=O)N([C@H](C)CO)C[C@H]1C`, the cytotoxicity call in experiment [1] and in experiment [2] was “inactive” throughout. In addition, the growth inhibition call in experiment [3] was “inactive”.

On to `C[C@@H]1CN([C@@H](C)CO)S(=O)(=O)c2ccc(-c3cccc(C#N)c3)cc2O[C@H]1CN(C)C(=O)c1cccnc1`, for which the cytotoxicity call in experiment [1] and in experiment [2] was “inactive” in each case. The growth inhibition call in experiment [3] was “inactive”.

In the case of `CC(C)NC(=O)Nc1cccc2c1O[C@@H](CN(C)C(=O)NC1CCCCC1)[C@@H](C)CN([C@@H](C)CO)C2=O`, the cytotoxicity call in experiment [1] and in experiment [2] was “inactive” throughout. In experiment [3], the growth inhibition call was “inactive”.

Take `O=C(C[C@H]1C=C[C@@H](NC(=O)c2cccnc2)[C@H](CO)O1)NCc1ccncn1`: the cytotoxicity call in experiment [1] and in experiment [2] was “inactive” throughout. The growth inhibition call in experiment [3] is “inactive”.

In the case of `CN1C(=O)c2cc(NC(=O)C3CCOCC3)ccc2OC[C@@H]2O[C@@H](CC(=O)NCc3ccccc3F)CC[C@H]21`, the cytotoxicity call in experiment [1] and in experiment [2] was “inactive” throughout. Moreover, the growth inhibition call in experiment [3] was “inactive”.

Turning to `COc1ccc2c(c1)[n+]([O-])c1c([n+]2[O-])CCC1`, the cytotoxicity call in experiment [1] and in experiment [2] was “inactive” each time. For the same compound, in experiment [3], the growth inhibition call was “inactive”.

With `Nc1cc(N2CCCCC2)nc(N)[n+]1[O-]`, the cytotoxicity call in experiment [1] and in experiment [2] was “inactive” each time. Besides, in experiment [3], the growth inhibition call was “inactive”.

On to `C[C@@H]1CCCCO[C@@H](CN(C)C(=O)Nc2ccccc2)[C@@H](C)CN([C@H](C)CO)C(=O)c2cc(NC(=O)c3ccncc3)ccc2O1`, for which the cytotoxicity call in experiment [1] and in experiment [2] was “inactive” each time. For the same compound, the growth inhibition call in experiment [3] was “inactive”.

Regarding `COc1ccc2nc3ccc(Cl)cc3c(SCCCN)c2c1`, the cytotoxicity call in experiment [1] and in experiment [2] was “inactive” in each case. For the same compound, the growth inhibition call in experiment [3] is “inactive”.

As to `C[C@H](CO)N1C[C@H](C)[C@@H](CN(C)Cc2ccc(Oc3ccccc3)cc2)Oc2ccc(NC(=O)Nc3ccc(F)cc3)cc2C1=O`, the cytotoxicity call in experiment [1] and in experiment [2] was “inactive” each time. In addition, the growth inhibition call in experiment [3] was “inactive”.

With `COc1ccc(C#Cc2cnc3c(c2)C(=O)N([C@H](C)CO)C[C@H](C)[C@H](CN(C)S(=O)(=O)c2ccc(C)cc2)O3)cc1OC`, the cytotoxicity call in experiment [1] and in experiment [2] was “inactive” throughout. Also, the growth inhibition call in experiment [3] was “inactive”.

Take `Cc1ccc(S(=O)(=O)NCC[C@H]2CC[C@H](NS(=O)(=O)c3ccccc3Cl)[C@H](CO)O2)cc1`: the cytotoxicity call in experiment [1] and in experiment [2] was “inactive” each time. In addition, the growth inhibition call in experiment [3] was “inactive”.

In the case of `Cc1cc2nc3c(=O)[nH]c(=O)nc-3n(C[C@H](O)[C@H](O)[C@H](O)COP(=O)(O)OP(=O)(O)OC[C@H]3O[C@@H](n4cnc5c(N)ncnc54)[C@H](O)[C@@H]3O)c2cc1C`, the cytotoxicity call in experiment [1] and in experiment [2] was “inactive” each time. Further, in experiment [3], the growth inhibition call is “inactive”.
